Measurements published in paper PMC4336329 (PLoS ONE, 2015).
Hit rate of the full screen: of about 310,000 compounds, about 2,200 (0.71%) showed an effect of 50% or more. The effect is printed as a negative number. Some of the results follow.

The compounds below were run against human ether-à-go-go-related gene (hERG) potassium channel (human, UniProt Q12809) (assay: primary screen, population patch clamp on CHO cells stably expressing hERG).
Sequence of human ether-à-go-go-related gene (hERG) potassium channel (Q12809 whole entry, looked up): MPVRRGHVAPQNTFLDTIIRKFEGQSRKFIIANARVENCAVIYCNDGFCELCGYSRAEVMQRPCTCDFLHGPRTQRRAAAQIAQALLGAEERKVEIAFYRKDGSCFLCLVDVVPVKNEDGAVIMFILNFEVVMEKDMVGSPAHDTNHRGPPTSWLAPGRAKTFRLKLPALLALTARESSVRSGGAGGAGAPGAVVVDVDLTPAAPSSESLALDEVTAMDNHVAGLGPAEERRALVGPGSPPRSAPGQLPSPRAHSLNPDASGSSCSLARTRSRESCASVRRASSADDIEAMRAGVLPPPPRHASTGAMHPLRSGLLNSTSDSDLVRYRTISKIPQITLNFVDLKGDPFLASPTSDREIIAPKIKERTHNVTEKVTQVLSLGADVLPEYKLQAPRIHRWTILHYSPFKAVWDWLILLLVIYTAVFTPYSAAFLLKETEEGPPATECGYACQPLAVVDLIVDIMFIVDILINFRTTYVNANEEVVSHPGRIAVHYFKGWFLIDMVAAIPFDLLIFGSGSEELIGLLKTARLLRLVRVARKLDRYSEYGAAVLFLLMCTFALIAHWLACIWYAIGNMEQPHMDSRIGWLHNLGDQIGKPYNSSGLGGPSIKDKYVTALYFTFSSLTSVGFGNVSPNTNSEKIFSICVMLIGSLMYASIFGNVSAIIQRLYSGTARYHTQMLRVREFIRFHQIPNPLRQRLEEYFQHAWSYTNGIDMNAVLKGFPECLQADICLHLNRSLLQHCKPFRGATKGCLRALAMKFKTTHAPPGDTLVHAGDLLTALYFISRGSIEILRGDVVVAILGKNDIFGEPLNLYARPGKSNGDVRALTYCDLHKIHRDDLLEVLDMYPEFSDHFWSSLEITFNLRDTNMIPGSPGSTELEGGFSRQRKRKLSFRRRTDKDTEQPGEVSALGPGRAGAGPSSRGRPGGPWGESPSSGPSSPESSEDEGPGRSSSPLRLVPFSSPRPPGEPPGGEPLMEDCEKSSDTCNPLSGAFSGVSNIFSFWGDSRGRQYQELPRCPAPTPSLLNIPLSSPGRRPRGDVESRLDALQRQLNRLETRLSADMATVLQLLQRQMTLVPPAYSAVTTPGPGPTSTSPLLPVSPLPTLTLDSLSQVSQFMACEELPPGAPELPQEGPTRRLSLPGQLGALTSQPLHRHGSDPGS

Compound	hERG current change (%, negative = inhibition) at 1uM [%]
COc1ccc(OC)c(NC(=S)N2CCN(c3ccccn3)CC2)c1	8.1
CC(=O)COc1ccccc1OC(=O)c1ccco1	-1.08
Cn1c(NC(=O)C(C)(C)Oc2ccc(Cl)cc2)cc(=O)n(C)c1=O	4.49
Cc1nnc(NC(=O)CSc2nnc(CC(=O)Nc3ccccc3Cl)n2C)s1	18.1
O=C(COc1ccc(Br)cc1)NCc1ccccn1	3.98
CN(Cc1ccccc1)C(=S)NC(=O)c1cccs1	11.3
O=C(/C=C/c1ccc(Cl)cc1)Nc1ccccc1N1CCOCC1	10.4
Cc1cc(=O)oc2cc(NS(=O)(=O)c3ccccc3)ccc12	15.6
COc1ccc(C(=O)N/C(=C\c2cn(S(=O)(=O)N(C)C)c3ccccc23)C(=O)NCCN2CCOCC2)cc1OC	6.52
CC(C)C(NC(=O)c1ccccc1NC(=O)c1ccccc1)C(=O)NCCCn1ccnc1 (stereo not shown)	14.1
Cc1ccc(C)c(N2CC(C(=O)O)CC2=O)c1 (stereo not shown)	6.38
Cc1cc(C(F)(F)F)n(-c2nc(C(=O)NN)cs2)n1	0.755
C=CCNC(=O)c1onc(CSc2cc(C)cc(C)c2)c1C(=O)NCC=C	16.3
Cc1nn(Cc2nnc(SCC(=O)Nc3ccc(Cl)cc3)n2C)c(C)c1[N+](=O)[O-]	-1.03
O=C(CN1C(=O)NC(c2ccccc2)(c2ccccc2)C1=O)NCc1cccs1	10.1
CC(C)CCNC(=S)Nc1ccccn1	3.6
CCOC(=O)c1nnn(-c2nonc2OC)c1-c1ccccc1	6.57
CCOc1ccc2nc(N(CCN(C)C)C(=O)c3ccc4c(c3)CCCC4)sc2c1.Cl	0.706
COc1ccc(C(=O)COC(=O)C(CCSC)NC(=O)COc2ccccc2)c(OC)c1 (stereo not shown)	3.29
Cc1cccc(Cn2c(=O)n(CCCC(=O)NCc3ccco3)c(=O)c3ccccc32)c1	-4.67
CCN(CC)c1ccc(S(=O)(=O)N2CCOCC2)cc1NC(=O)CSc1nncs1	-2.21
COc1cc(N2C(=O)c3ccccc3C2=O)c(Cl)cc1C(=O)OCC(=O)N(C)C	6.05
C#CCSc1nnnn1-c1ccc(Br)c(C)c1	8.02
Cc1cc2ncn(-c3nnnn3-c3ccccc3)c2cc1C	5.53
Cc1ccc(S(=O)(=O)N(c2ccc(Br)cc2)C2C=CS(=O)(=O)C2)cc1 (stereo not shown)	15.8
